# From a collection of fitness landscapes (doi:10.1016/j.celrep.2020.107928)
# Over roughly 81,000 sequences, “one-hybrid fitness for binding parS DNA” has its median near -0.17; the highest 2% begin near 0.51. The list shows a part of the results.
# B1: Caulobacter ParB omega fusion; a variant is named by its letters at X, in order, B8GW30 (parent)
# chain: MESVVVGEPGMSEGRRGLGRGLSALLGEVDAAPAQAPGEQLGGSREAPIEILQRNPDQPRRTFREEDLEDLSNSIREKGVLQPILVRPSPDTAGEYQIVAGERAWRAAQRAGLKTVPIMVRELDDLAVLEIGIIENVQRADLNVLEEALSYKVLMEKFERTQENIAQTIGKSXSHVANXMRLLXLPDEVQSYLVSGELTAXHARAIAAAADPVALAKQIIEGGLSVRETEALARKAPNLSAGKSKGGRPPRVKDTDTQALESDLSSVLGLDVSIDHRGSTGTLTITYATLEQLDDLCNRLTRGI
# Variants of: B1
# Test: one-hybrid fitness for binding parS DNA (scaled: cognate 1, non-cognate 0); higher = stronger binding
# Details: with parS DNA site
# Method in brief: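 Bacterial one-hybrid selection in E. coli USO rpoZ- hisB- pyrF- with a HIS3 reporter carrying the site 19 bp from the promoter, screening Caulobacter ParB libraries with four specificity codons randomised (NNS). Cells grew 48 hours at 37°C on M9-minus-histidine plus 0.1 mM IPTG and 5 mM 3-AT. Plasmids before and after selection were Illumina-sequenced, three replicate libraries pooled, and variants under 10 reads dropped. Fitness is the log change in variant-to-wild-type read ratio, rescaled to cognate 1, non-cognate 0.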
row,Variant,one-hybrid fitness for binding parS DNA
1,HTYL,≤ 0.2
2,MWGR,≤ 0.2
3,QCNG,≤ 0.2
4,PDAY,≤ 0.2
5,LSCF,≤ 0.2
6,QPDY,≤ 0.2
7,YLEF,≤ 0.2
8,VSEC,≤ 0.2
9,TAGA,≤ 0.2
10,WKRC,≤ 0.2
11,HKAA,≤ 0.2
12,RKRW,≤ 0.2
13,QFAS,≤ 0.2
14,VDMR,≤ 0.2
15,PCGY,≤ 0.2
16,GSSC,≤ 0.2
17,DWLR,≤ 0.2
18,EITM,≤ 0.2
19,PNCA,≤ 0.2
20,DYWG,≤ 0.2
21,SFRA,≤ 0.2
22,CSPA,≤ 0.2
23,TDLR,≤ 0.2
24,DDNI,≤ 0.2

row,Variant,one-hybrid fitness for binding parS DNA
1,KTVM,≤ 0.2
2,TEHL,≤ 0.2
3,QAKS,≤ 0.2
4,NTSA,≤ 0.2
5,DFRR,≤ 0.2
6,RATD,≤ 0.2
7,THYV,≤ 0.2
8,ATPC,≤ 0.2
9,YYTI,≤ 0.2
10,PHYM,≤ 0.2
11,RASP,≤ 0.2
12,NNPV,≤ 0.2
13,YPEL,≤ 0.2
14,PEPH,≤ 0.2
15,HRRH,≤ 0.2
16,FKHM,≤ 0.2
17,RYTK,≤ 0.2
18,KKGS,≤ 0.2
19,RQFI,≤ 0.2
20,ACDK,≤ 0.2
21,LEKF,≤ 0.2
22,HIIR,≤ 0.2
23,PFHY,≤ 0.2
24,RLKP,≤ 0.2

row,Variant,one-hybrid fitness for binding parS DNA
1,KRCN,≤ 0.2
2,IYMT,≤ 0.2
3,VSKV,≤ 0.2
4,SVTW,≤ 0.2
5,ASWR,≤ 0.2
6,CCHG,≤ 0.2
7,HPLR,≤ 0.2
8,HTTG,≤ 0.2
9,WVPV,≤ 0.2
10,CHVR,≤ 0.2
11,HRVP,≤ 0.2
12,SDGY,≤ 0.2
13,PVKS,≤ 0.2
14,WDTY,≤ 0.2
15,PTNL,≤ 0.2
16,QKRW,≤ 0.2
17,AKWG,≤ 0.2
18,GNKF,≤ 0.2
19,RPEC,≤ 0.2
20,KTNY,≤ 0.2
21,ELHL,≤ 0.2
22,LSVG,≤ 0.2
23,AAQN,≤ 0.2
24,TTIR,≤ 0.2

row,Variant,one-hybrid fitness for binding parS DNA
1,MNMG,≤ 0.2
2,CRLS,≤ 0.2
3,EATF,≤ 0.2
4,DRSG,≤ 0.2
5,CSYL,≤ 0.2
6,SCWC,≤ 0.2
7,MYQS,≤ 0.2
8,RTSP,≤ 0.2
9,FDRS,≤ 0.2
10,DLLS,≤ 0.2
11,HRDG,≤ 0.2
12,AQHG,≤ 0.2
13,SENR,≤ 0.2
14,SRLH,≤ 0.2
15,LATF,≤ 0.2
16,LGYW,≤ 0.2
17,GCYS,≤ 0.2
18,PASM,≤ 0.2
19,RPCA,≤ 0.2
20,GMLT,≤ 0.2
21,NGIA,≤ 0.2
22,DTEI,≤ 0.2
23,NKRM,≤ 0.2
24,RVRS,0.895

row,Variant,one-hybrid fitness for binding parS DNA
1,DNNN,≤ 0.2
2,DNSI,≤ 0.2
3,VGHC,≤ 0.2
4,RSFT,0.751
5,KTMM,≤ 0.2
6,SPES,≤ 0.2
7,SDLR,≤ 0.2
8,NCPG,≤ 0.2
9,TVAS,≤ 0.2
10,PGSA,≤ 0.2
11,SVTK,≤ 0.2
12,FNRH,≤ 0.2
13,LVVI,≤ 0.2
14,FREG,≤ 0.2
15,LVRT,≤ 0.2
16,CNQG,≤ 0.2
17,TWKW,≤ 0.2
18,VLPN,≤ 0.2
19,PAST,≤ 0.2
20,WTDV,≤ 0.2
21,QVTE,≤ 0.2
22,GDQE,≤ 0.2
23,QACH,≤ 0.2
24,RWGT,0.548

row,Variant,one-hybrid fitness for binding parS DNA
1,VTRL,≤ 0.2
2,RILI,≤ 0.2
3,MESR,≤ 0.2
4,AVKF,≤ 0.2
5,CAGS,≤ 0.2
6,QSQL,≤ 0.2
7,LTVF,≤ 0.2
8,PFYV,≤ 0.2
9,CDPV,≤ 0.2
10,RREG,0.915
11,CKPA,≤ 0.2
12,IKKT,≤ 0.2
13,MVPF,≤ 0.2
14,TTGL,≤ 0.2
15,ETNN,≤ 0.2
16,SCHG,≤ 0.2
17,STMV,≤ 0.2
18,KRHC,≤ 0.2
19,TRRS,≤ 0.2
20,HYKS,≤ 0.2
21,VMWR,≤ 0.2
22,IAKK,≤ 0.2
23,SRSW,≤ 0.2
24,MTHD,≤ 0.2

row,Variant,one-hybrid fitness for binding parS DNA
1,DGNV,≤ 0.2
2,TAPW,≤ 0.2
3,RCWI,0.301
4,CNLA,≤ 0.2
5,SGGR,≤ 0.2
6,LNQT,≤ 0.2
7,QKFR,≤ 0.2
8,AQWT,≤ 0.2
9,SLSG,≤ 0.2
10,PGPA,≤ 0.2
11,PTSN,≤ 0.2
12,WHGS,≤ 0.2
13,RDCC,≤ 0.2
14,VNDL,≤ 0.2
15,MDTS,≤ 0.2
16,YVLC,≤ 0.2
17,VVSG,≤ 0.2
18,DSTW,≤ 0.2
19,TDEP,≤ 0.2
20,WEHR,≤ 0.2
21,WSWD,≤ 0.2
22,TITK,≤ 0.2
23,DAQQ,≤ 0.2
24,NFGC,≤ 0.2

row,Variant,one-hybrid fitness for binding parS DNA
1,KENS,≤ 0.2
2,LWIT,≤ 0.2
3,HGNT,≤ 0.2
4,QRFI,≤ 0.2
5,GPFR,≤ 0.2
6,RMEG,0.86
7,RITW,0.203
8,VARK,≤ 0.2
9,MAPR,≤ 0.2
10,MLSC,≤ 0.2
11,HYTG,≤ 0.2
12,RCNN,0.459
13,PHKR,≤ 0.2
14,AYVW,≤ 0.2
15,TNTE,≤ 0.2
16,EAHE,≤ 0.2
17,HTFG,≤ 0.2
18,RMHC,0.979
19,LLDV,≤ 0.2
20,IVKL,≤ 0.2
21,RSPT,0.372
22,PMMD,≤ 0.2
23,PSMG,≤ 0.2
24,HVTC,≤ 0.2

row,Variant,one-hybrid fitness for binding parS DNA
1,SPAE,≤ 0.2
2,CVRG,≤ 0.2
3,VIMG,≤ 0.2
4,VSAI,≤ 0.2
5,VWMR,≤ 0.2
6,GRPP,≤ 0.2
7,QNDG,≤ 0.2
8,PTNV,≤ 0.2
9,PFGG,≤ 0.2
10,YYAT,≤ 0.2
11,LNHD,≤ 0.2
12,YCPR,≤ 0.2
13,CLTA,≤ 0.2
14,FDVL,≤ 0.2
15,LDMC,≤ 0.2
16,PLYD,≤ 0.2
17,GTMF,≤ 0.2
18,LRLM,≤ 0.2
19,QWHG,≤ 0.2
20,EPRG,≤ 0.2
21,PRCV,≤ 0.2
22,SLCI,≤ 0.2
23,SELL,≤ 0.2
24,TEQC,≤ 0.2

row,Variant,one-hybrid fitness for binding parS DNA
1,EGYS,≤ 0.2
2,FTCC,≤ 0.2
3,FSRA,≤ 0.2
4,DRCG,≤ 0.2
5,FIER,≤ 0.2
6,ECPE,≤ 0.2
7,QWQI,≤ 0.2
8,EFAL,≤ 0.2
9,QAYG,≤ 0.2
10,QFLA,≤ 0.2
11,HKYC,≤ 0.2
12,PPGG,≤ 0.2
13,GPWL,≤ 0.2
14,IHST,≤ 0.2
15,YPQG,≤ 0.2
16,RSVH,≤ 0.2
17,KTPS,≤ 0.2
18,TGSD,≤ 0.2
19,MNLS,≤ 0.2
20,WVDG,≤ 0.2
21,KRPT,≤ 0.2
22,NPWG,≤ 0.2
23,QYWT,≤ 0.2
24,YNCT,≤ 0.2

row,Variant,one-hybrid fitness for binding parS DNA
1,GNQV,≤ 0.2
2,RFQS,1
3,QMQE,≤ 0.2
4,TSHF,≤ 0.2
5,GHDT,≤ 0.2
6,MGHE,0.254
7,DWSC,≤ 0.2
8,RQFL,≤ 0.2
9,QIVI,≤ 0.2
10,ADGP,≤ 0.2
11,VPIT,≤ 0.2
12,PQTG,≤ 0.2
13,TAYI,≤ 0.2
14,EGNL,≤ 0.2
15,RAFA,0.624
16,KCKT,≤ 0.2
17,YSVR,≤ 0.2
18,SSVD,≤ 0.2
19,LNDM,≤ 0.2
20,VTVQ,≤ 0.2
21,ETAY,≤ 0.2
22,EIIS,≤ 0.2
23,PANV,≤ 0.2
24,DTAD,≤ 0.2

row,Variant,one-hybrid fitness for binding parS DNA
1,KILV,≤ 0.2
2,HKCT,≤ 0.2
3,YEVR,≤ 0.2
4,AQAP,≤ 0.2
5,PWMT,≤ 0.2
6,ENTR,≤ 0.2
7,RNSI,≤ 0.2
8,TPVS,≤ 0.2
9,HKYG,≤ 0.2
10,RGAY,≤ 0.2
11,CHKS,≤ 0.2
12,EYVS,≤ 0.2
13,NTWF,≤ 0.2
14,VAQF,≤ 0.2
15,HGQK,≤ 0.2
16,GPPY,≤ 0.2
17,VMLF,≤ 0.2
18,RGAC,0.584
19,HNPP,0.237
20,HIPT,≤ 0.2
21,TNKG,≤ 0.2
22,QCHY,≤ 0.2
23,SVNA,≤ 0.2
24,HCLI,≤ 0.2

row,Variant,one-hybrid fitness for binding parS DNA
1,ANMC,≤ 0.2
2,RCVN,0.406
3,KMYR,≤ 0.2
4,GRHM,≤ 0.2
5,RIRH,0.29
6,CSTN,≤ 0.2
7,PFTD,≤ 0.2
8,RFEG,0.731
9,LDSS,≤ 0.2
10,LCLR,≤ 0.2
11,LFKT,≤ 0.2
12,YSPS,≤ 0.2
13,SPTY,≤ 0.2
14,GSHE,≤ 0.2
15,LSWA,≤ 0.2
16,ACIS,≤ 0.2
17,EMLV,≤ 0.2
18,DMCT,≤ 0.2
